Screen size: about 310,000 compounds; about 14,000 (4.5%) showed an effect of 50% or more. Effects have a minus sign here. Some of the results follow.
Target: human ether-à-go-go-related gene (hERG) potassium channel (human, UniProt Q12809)
Experiment: primary screen, population patch clamp on CHO cells stably expressing hERG
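Note: peak tail current of the secondary pulse compared with the same well before compound.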

Sequence of human ether-à-go-go-related gene (hERG) potassium channel (Q12809 whole entry, looked up): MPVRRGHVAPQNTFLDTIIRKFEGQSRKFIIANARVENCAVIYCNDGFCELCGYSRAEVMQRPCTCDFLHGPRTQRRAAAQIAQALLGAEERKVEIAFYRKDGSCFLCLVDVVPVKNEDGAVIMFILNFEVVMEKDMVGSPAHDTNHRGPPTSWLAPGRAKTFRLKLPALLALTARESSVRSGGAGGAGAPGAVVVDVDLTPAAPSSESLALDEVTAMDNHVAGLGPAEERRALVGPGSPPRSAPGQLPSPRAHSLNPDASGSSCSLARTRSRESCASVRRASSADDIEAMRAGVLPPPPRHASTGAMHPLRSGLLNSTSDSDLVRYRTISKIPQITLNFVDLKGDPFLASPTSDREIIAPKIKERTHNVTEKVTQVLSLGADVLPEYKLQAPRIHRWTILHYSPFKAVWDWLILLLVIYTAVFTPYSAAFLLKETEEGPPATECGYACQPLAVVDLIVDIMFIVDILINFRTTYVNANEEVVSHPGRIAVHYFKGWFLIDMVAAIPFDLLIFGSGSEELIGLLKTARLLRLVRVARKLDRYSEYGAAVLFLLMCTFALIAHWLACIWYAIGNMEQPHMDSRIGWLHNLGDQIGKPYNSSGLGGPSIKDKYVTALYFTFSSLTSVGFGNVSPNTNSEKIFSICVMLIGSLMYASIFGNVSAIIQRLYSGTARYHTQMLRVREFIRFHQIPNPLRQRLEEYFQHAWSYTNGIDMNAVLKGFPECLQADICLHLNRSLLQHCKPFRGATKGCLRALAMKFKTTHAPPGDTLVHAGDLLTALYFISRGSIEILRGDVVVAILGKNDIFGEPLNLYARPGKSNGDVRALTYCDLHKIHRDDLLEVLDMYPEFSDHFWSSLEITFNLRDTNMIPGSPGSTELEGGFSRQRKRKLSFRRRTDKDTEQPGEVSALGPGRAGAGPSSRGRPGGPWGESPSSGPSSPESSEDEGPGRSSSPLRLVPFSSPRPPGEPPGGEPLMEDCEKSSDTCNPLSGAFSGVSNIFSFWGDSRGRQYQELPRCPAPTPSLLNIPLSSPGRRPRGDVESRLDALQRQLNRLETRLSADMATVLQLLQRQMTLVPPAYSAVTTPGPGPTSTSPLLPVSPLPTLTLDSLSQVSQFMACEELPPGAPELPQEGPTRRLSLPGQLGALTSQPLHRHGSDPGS

Compound | hERG current change (%, negative = inhibition) at 10uM [%]
COc1ccccc1NS(=O)(=O)c1cc(C(=O)NCc2cccnc2)ccc1C | -23.7
O=C(Cn1c(=O)oc2ccccc21)NC(=O)NCc1ccccc1 | 2.19
O=C(COc1ccc(/C=N/NC(=O)c2cc3ccccc3o2)cc1Cl)Nc1ccccc1 | 6.96
CC(=O)c1ccc(S(=O)(=O)NCCC(=O)NC(C)c2ccncc2)cc1 (stereo not shown) | 8.78
CCOC(=O)N1CCN(C(=O)CCc2ccc(S(=O)(=O)NC(C)C)cc2)CC1 | 14.2
COc1ccccc1CC1CC(=O)N(c2cccc(Cl)c2C)C1=O (stereo not shown) | 9.06
O=C(Nc1ccc2c(c1)OCCO2)C1CC(c2ccccc2Cl)=NO1 (stereo not shown) | 9
COc1ccc(NC(=O)CSc2ccc(F)cc2)cc1S(=O)(=O)N1CCCCC1 | -16
COc1cccc(CC(NC(C)=O)C(=O)NC2CCN(c3nnnn3-c3ccccc3)CC2)c1 (stereo not shown) | 8.16
CCOc1cc2[nH]c(=S)n(CC3CCCN3CC)c(=O)c2cc1OCC (stereo not shown) | -26.5
Cc1ccc(N=Cc2ccc(N(C)C)cc2)cc1C | 9.65
COc1ccc(Cl)cc1NC(=O)NNC(=O)c1ccccn1 | 7.79
COc1cc(OC)c(/C=C2\C(=O)Nc3ccccc32)c(OC)c1 | -0.857
Cc1ccc(CNC(=O)C(=O)NCC2OCCCN2S(=O)(=O)c2ccc(F)cc2)cc1 (stereo not shown) | -12.1
COCCn1cnnc1SCC(=O)Nc1cccc(S(=O)(=O)N(C)c2ccccc2)c1 | -32.1
CN(CC(=O)Nc1ccc2c(c1)OCO2)S(=O)(=O)c1ccc2c(c1)CCC(=O)N2 | -22.7
Cc1ccccc1OCC(=O)NNC=O | 22.9
C/C=C\C(=O)Nc1cccc(C2=NOC3(C2)C[C@@H](C(N)=O)N(C(=O)CCCCC)C3)c1 (stereo partly shown) | -31
Cl.Nc1cccc2c3c(oc12)CCCC3 | 15.3
O=S(=O)(Nc1cc(C(F)(F)F)ccc1N1CCOCC1)c1ccc2ccccc2c1 | -7.3
Cc1cccc(C2Nc3ccccc3C(=O)N2CCc2ccccc2)n1 (stereo not shown) | -12.2
CC12CC(c3ccccc3O1)N(C(=O)c1ccco1)C(=O)N2c1ccccc1 (stereo not shown) | -4.58

Compound | hERG current change (%, negative = inhibition) at 10uM [%]
CSc1ccc(CN2CCN(CCC(C)C)C(CCO)C2)cc1 (stereo not shown) | -63.3
CCOc1ccc(S(=O)(=O)N2CCN(C(=O)c3cc4c(s3)CCCC4)CC2)cc1 | -7.25
CN(CC(=O)N1CCC(C(N)=O)CC1)S(=O)(=O)c1ccc2ccccc2c1 | 12.3
O=c1oc2cc(S(=O)(=O)NCCCO)ccc2c2ccc(S(=O)(=O)NCCCO)cc12 | 16.1
COc1c2ccoc2c(OC[C@@H](OC(C)=O)C(C)(C)O)c2oc(=O)ccc12 | 19.9
CN(CC(=O)Nc1ccccc1Cl)CC(=O)c1c(N)n(Cc2ccccc2)c(=O)n(C)c1=O | -1.4
CC(C)Cn1cnc2c1c(=O)n(CC(=O)O)c(=O)n2Cc1ccccc1 | 21.8
O=C(O)C(=O)O.S=C(NCCc1ccccc1)N1CCN(Cc2ccccc2)CC1 | 0.0203
Cc1ccc2c(c1)N(S(=O)(=O)c1ccc3c(c1)NC(=O)CC(=O)N3)CCO2 | 9.92
COc1cc(/C=C/C(=O)OCC(=O)Nc2ccc(S(N)(=O)=O)cc2)ccc1O | 0.602
Cc1ccc(C(=O)Nc2ccncc2)cc1[N+](=O)[O-] | 6.17
CC1CC(C)CN(S(=O)(=O)c2ccc3oc(=O)ccc3c2)C1 (stereo not shown) | -59.5
CCc1ccc(NS(=O)(=O)c2c(C)noc2C)cc1 | -10.3
COc1ccc(CNC(=O)Cn2cc([N+](=O)[O-])cn2)cc1 | 16.1
CCOc1ccc(N(CC(=O)NN=C2CCN(C)CC2)S(C)(=O)=O)cc1 | 11.7
CC(=O)Nc1ccc(S(=O)(=O)NCC2CCC(C(=O)N3CCCCC3)CC2)cc1 (stereo not shown) | 11.5
Cc1nc2ccc(NC(=O)c3oc4ccc(F)cc4c3C)cc2s1 | 1.43
CC(C)(O)c1cc(=O)sc2nc3ccccc3n12 | -22.9
CCc1ccccc1NC(=O)CN(C)C(=O)CSc1nnc(Nc2cccc(C)c2)s1 | -1.7
C#CCOc1ccc(C2C3=C(CCCC3=O)N(CC(=O)O)C3=C2C(=O)CCC3)cc1Br | 15.6
CCC1c2ccc(C)n2CCN1C(=O)Nc1cc(Cl)ccc1OC (stereo not shown) | -4.1
COC(=O)C1=C(c2ccc(OC(F)(F)F)cc2)C[C@@H]2CC[C@H]1N2C(=O)N1CCCC1 | -47.9

Compound | hERG current change (%, negative = inhibition) at 10uM [%]
O=[N+]([O-])c1c(Nc2ccccn2)cc(Cl)c2nonc12 | 9.59
COc1ccccc1-n1c(Cc2ccccc2)nc2ccccc2c1=O | -3.38
CCOC(=O)c1c(C)n(C)c2c(C)cc(O)c(OC(C)=O)c12 | 4
O=C(CN1CCOCC1)NC1CC2CCC1C2 (stereo not shown) | 5.59
NC(N)=N/N=C/c1ccc2cccc(OCc3ccccc3)c2n1 | -45.5
CC(=O)NC(Cc1ccc(N(CCCl)CCCl)cc1)C(=O)NC(CC(C)C)C(=O)O (stereo not shown) | 14.1
CC(NC(=O)c1ccc(Cl)cc1)c1nnc(SCC(=O)NC2=NCCS2)n1C (stereo not shown) | 22.3
CC1(C)Cc2c(sc(NC(=O)c3ccco3)c2C(=O)O)CO1 | -3.94
CS(=O)(=O)c1ccc(C(=O)NC2CCOC2=O)cc1 (stereo not shown) | -13.6
CC(C)(C)c1cc(C(=O)Nc2cccnc2)cc(C(=O)Nc2cccnc2)c1 | -11.5
CCC1(COC(NC(=O)c2cccnc2)(C(F)(F)F)C(F)(F)F)COC1 | 13.3
Cc1ccc(NC(=O)CN(C)C(=O)COC(=O)C(C)(C)Oc2ccc(Cl)cc2)cc1 | 21.6
COC(=O)C1C(=O)CC(C)(O)C(C(=O)OC)C1c1ccc2c(c1)OCO2 (stereo not shown) | 12.9
Cc1ccc(Nc2nc(N)nc(CN3CCN(Cc4ccc5c(c4)OCO5)CC3)n2)c(C)c1 | -76.9
COCCN(C(=O)CSCc1ccc(C)cc1)c1c(N)n(CC(C)C)c(=O)[nH]c1=O | 0.632
O=C(c1ccco1)N1CCN(C(=O)c2cc(-c3ccccc3F)no2)CC1 | -15.8
O=C(Nc1cccs1)Nc1ccc(Br)cc1F | 10.2
CCOC(=O)CSC1=C(C#N)C(c2ccco2)C(C(=O)Nc2cccc(C(F)(F)F)c2)=C(C)N1 (stereo not shown) | -10.7
O=C(Nc1ccc(S(=O)(=O)Nc2ccnn2-c2ccccc2)cc1)C(F)(F)F | 12
COc1cccc(NC(=O)c2cccc(N3C(=O)C4C5C=CC(C5)C4C3=O)c2)c1 (stereo not shown) | -38.4
C/C(=N\NC(=O)Cc1c(C)[nH][nH]c1=O)c1ccc2ccccc2c1 | 2.35
CCCCC(=O)NCc1ccc2c(c1)cc(C)n2C | -0.63

Compound | hERG current change (%, negative = inhibition) at 10uM [%]
Cc1c(NC(=O)C(C)OC(=O)c2sc3ccccc3c2Cl)c(=O)n(-c2ccccc2)n1C (stereo not shown) | -21.7
Cn1c(=O)c2[nH]c(N3CCCCC3)nc2n(C)c1=O | 6.41
CCOC(=O)c1nnn(-c2nonc2-n2cccc2)c1-c1cccc([N+](=O)[O-])c1 | -5.63
CN(C)CCCN(C(=O)c1ccc(C(=O)c2ccccc2)cc1)c1nc2ccc(F)cc2s1 | -74.9
O=c1[nH]c2ccccc2cc1-c1noc(-c2cccnc2)n1 | 2.74
COc1ccc(CNC(=O)Cc2cn(C)c3ccccc23)c(OC)c1 | -1.71
COc1ccc(-n2nc3c(c2NC(=O)COc2ccccc2)CS(=O)C3)cc1 (stereo not shown) | -28.2
COc1ccc(C(=O)C(c2ccccc2)N2CCOCC2)cc1.Cl (stereo not shown) | -2.36
COc1ccc(/C(N)=N/OC(=O)C2CCC(=O)N2S(=O)(=O)c2ccc(C)cc2)cc1OC (stereo not shown) | -17.4
COc1ccc(S(=O)(=O)N2CCCOC2CNC(=O)C(=O)NCCc2ccco2)cc1C (stereo not shown) | -4.4
CCOc1cc(/C=C/C(=O)OCC(=O)NCc2ccco2)cc(Cl)c1OC | -29.9
CC1(C)CC(=O)C=C(NC2CCCCCC2)C1 | -1.93
CC(C)C(=O)N1CCN(c2ccccc2NC(=O)COc2ccc(C3CCCCC3)cc2)CC1 | -4.96
Cc1cc(-c2nnc3n2N=C(c2ccccc2Br)CS3)n[nH]1 | -2.51
O=C(O)[C@H]1CCCC[C@H]1C(=O)Nc1ccc(Nc2ccccc2)cc1 | 4.15
O=C1CCCCN1CCCC(=O)N1CCCC(Nc2ccc(F)c(F)c2)C1 (stereo not shown) | -27.3
Cc1cc2ccccc2c(=O)n1CC(=O)NCC1COc2ccccc2O1 (stereo not shown) | 0.464
COc1ccc(N2Cc3cccc(C(=O)NC(C)CCc4ccco4)c3C2=O)cc1 (stereo not shown) | -25.8
CN(CC(=O)Nc1cc(Cl)ccc1Cl)C1CCS(=O)(=O)C1 (stereo not shown) | -3.19
